According to PubChem BioAssay AID445 (National Center for Advancing Translational Sciences (NCATS), 2006):
Hit rate of the full screen: of about 110,000 compounds, about 40 (0.04%) were called active. This list was built around the results that the source calls inconclusive (neither active nor inactive); the mix of calls is not that of the screen. Calls follow the shape of the dose curve; as a rule, active = well fitted curve in the direction sought with a large enough effect in the signal ratio (not every such curve was filed as active); inconclusive = small, poorly fitted or top-dose-only effect, or a change in a side signal; inactive = flat fitted curve, though single readings scatter; the % refers to the signal ratio. Potencies of inconclusive entries are doubtful fits and often do not repeat.

experiment: IkB Signaling; settings: ABC-DLBCL IkBa-CBG/CBR dual luciferase ratio (green luciferase fused to IkBa over red control in OCI-Ly3 lymphoma cells), 4 h; IkBa stabilization activation: at 57.1 µM (top of the series), scaled: untreated 0%, proteasome inhibitor 100% unless noted;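 as to IkBa stabilization activation: 0% = basal untreated cells and 100% = reference inhibitor full response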
How it was run: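 Luminescence ratio of IκBα-fused green versus native red beetle luciferase in OCI-Ly3 cells, 4 h post-doxycycline with compound; red signal alone, scaled from basal (0%) to zero light (-100%), flagged nonspecific or cytotoxic effects.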
Potency is read from the fitted curve at half-maximal effect.

SMILES | IkBa stabilization activation | Potency
CCOC(=O)c1c(NC(=O)C(F)(OC)C(F)(F)F)sc2c1CCN(C)C2 (stereo not given) | inactive | –
Cn1cc(C2NC(=O)c3c(sc4c3CCCC4)N2)c2ccccc21 (stereo not given) | inactive | –
CCOC(=O)c1cccc(NC(=O)Nc2cc(OC)ccc2OC)c1 | inconclusive: 5.27% [signal inhibitor] | –
CCOC(=O)Cn1cnc2c(cnn2-c2ccc(C)c(C)c2)c1=O | inconclusive: 1.66% [signal inhibitor] | –
COc1ccccc1-c1nc(C#N)c(N2CCc3ccccc3C2)o1 | inconclusive: -0.646% [signal inhibitor] | –
Cc1ccccc1C(=O)NCc1ccc2c(c1)CCN2C(=O)c1ccc(F)cc1 | inconclusive: 1.74% [signal inhibitor] | –
COc1ccc(NC(=O)c2nc(S(=O)(=O)Cc3ccc(C)cc3)ncc2Cl)cc1 | inactive | –
O=C(Nc1cccc(S(=O)(=O)C(F)F)c1)c1ccc(S(=O)(=O)N2CCOCC2)cc1 | inconclusive: 0.842% [signal inhibitor] | –
CC1CCC(NC(=O)CCc2cn(Cc3ccc(F)cc3)c3ccccc23)CC1 (stereo not given) | inactive | –
Cc1ccc(Cn2c(-c3nonc3N)nc3ccccc32)cc1 | inactive | –
COc1cccc(-c2nc(-c3ccccn3)no2)c1OC | inactive | –
Brc1ccc(C2=Nn3c(nnc3-c3n[nH]c4c3CCC4)SC2)cc1 | inactive | –
COc1ccc(-n2nc(C(=O)NCC(=O)N3CCN(c4ccccn4)CC3)c3ccccc3c2=O)cc1 | inactive | –
O=C(CCS(=O)(=O)c1nc(-c2cccs2)cc(C(F)(F)F)n1)Nc1cccc(O)c1 | inactive | –
COc1ccccc1CNC(=O)c1cc(-c2ccccc2)n[nH]1 | inconclusive: 16.4% [signal inhibitor] | –
CNC(=O)[C@@H]1O[C@@H](n2cnc3c(NCc4cccc(I)c4)ncnc32)[C@H](O)[C@@H]1O | inconclusive: -7.15% [signal activator] | –
O=C(NCCCN1CCN(c2cccc(Cl)c2)CC1)c1nnc(Cc2ccc(F)cc2Cl)o1 | inconclusive: 19% [signal inhibitor] | –
Cc1ccc2nc(NC(=O)CSc3ncc(C(=O)Nc4ccccc4)c(=O)n3C)sc2c1 | inconclusive: 3.24% [signal inhibitor] | –
CCOP(=O)(c1ccc(N(C)C)cc1)C(O)c1ccc(Cl)cc1 (stereo not given) | – | inconclusive: 7.94 µM [signal inhibitor, partial curve]
COC(=O)CN1C(=O)C(C)(C)c2cc(S(=O)(=O)Nc3ccc(C(C)C)cc3)ccc21 | inconclusive: 2.1% [signal inhibitor] | –
Cc1ccc(C)c(CN2C(=O)C(O)(c3c[nH]c4ccccc34)c3ccccc32)c1 (stereo not given) | inactive | –
COc1cccc(NC(=O)c2oc3ccccc3c2NC(=O)Cc2cccc(C)c2)c1 | inconclusive: 3.18% [signal inhibitor] | –
Cc1ccccc1OCC(=O)N(Cc1ccc(C(C)C)cc1)C1CCS(=O)(=O)C1 (stereo not given) | – | inconclusive: 31.6 µM [signal inhibitor, partial curve]
COc1ccc(N2CC(NC(=O)c3ccc(S(=O)(=O)N4CCOCC4)cc3)CC2=O)cc1 (stereo not given) | inconclusive: 0.87% [signal inhibitor] | –

SMILES | IkBa stabilization activation | Potency
COc1cc2c(cc1OC)C(COc1ccc(C(C)C)cc1)N(C(=O)COc1ccccc1)CC2 (stereo not given) | inconclusive: 2.63% [signal inhibitor] | –
COc1ccccc1NC(=O)C1CCN(c2ncnc3c2nc2n3CCCCC2)CC1 | inconclusive: -0.442% [signal inhibitor] | –
CCOC(=O)CSc1ncnc2c1c(-c1ccccc1)cn2-c1ccc(OC)cc1 | inconclusive: 3.05% [signal inhibitor] | –
CC(C)c1[nH]nc2c1C(C(C)C)C(C#N)=C(N)O2 (stereo not given) | inconclusive: 4.53% [signal inhibitor] | –
CN(C)Cc1cc(C(=O)O)cc(CN(C)C)c1O | inactive: -0.859% [at 11.4 µM, scaled: untreated 0%, proteasome inhibitor 100%] | –
Cc1cccc(C(=O)Nc2cccc(C(=O)OCc3cc(=O)n4nc(C5CC5)sc4n3)c2)c1 | inconclusive: 6.72% [signal inhibitor] | –
N#Cc1ccccc1NC(=O)C(=O)NCC(c1cccnc1)N1CCN(c2ccccc2)CC1 (stereo not given) | inconclusive: -1.02% [signal inhibitor] | –
CCCCOc1ccccc1NC(=O)Cn1c(-c2nonc2N)nc2ccccc21 | inactive | –
O=C(NCc1ccco1)c1cc(-c2ccc(F)cc2)on1 | – | inconclusive: 25.1 µM [signal inhibitor, partial curve]
CCOc1ccc(C(=O)Nc2ccc3nc(SCC(=O)N4CCOCC4)sc3c2)cc1 | inconclusive: 3.33% [signal inhibitor] | –
CCN1CCN(C(=O)c2ccc3c(c2)N(Cc2cc(C)ccc2C)C(=O)c2ccccc2S3(=O)=O)CC1 | inconclusive: 2.59% [signal inhibitor] | –
CCOc1ccccc1Nc1ccc2cc(S(=O)(=O)N3CCCCC3)ccc2n1 | inconclusive: -0.816% [signal inhibitor] | –
Cc1cc(C)n(-c2nc3ccccc3c(=O)n2OCC(=O)OCc2ccccc2)n1 | – | inconclusive: 31.6 µM [rising, partial curve]
CCCSCCCNC(=O)CN1C(=O)COc2ccc(S(=O)(=O)N3CCCCCC3)cc21 | inconclusive: 0.0776% [signal inhibitor] | –
Cc1cc(NC(=O)CN(c2cccc(C)c2C)S(=O)(=O)c2ccccc2)ccc1Br | inconclusive: 16.2% [signal inhibitor] | –
COc1ccc(CCC(=O)NCc2ccc3c(c2)CCN3C(=O)c2cccc(C)c2)cc1 | inconclusive: 0.743% [signal inhibitor] | –
Cc1nnc(SC(C)C(=O)Nc2ccc3c(c2)OCCO3)s1 (stereo not given) | inactive | –
O=C(Cn1c(C(=O)N2CCN(C3CCCCC3)CC2)cc2sccc21)c1ccccc1 | inconclusive: 1.01% [signal inhibitor] | –
C=CCNC(=O)c1cc(-c2ccccc2O)on1 | – | inconclusive: 7.94 µM [signal inhibitor, partial curve]
COc1ccc(C(=O)Nc2ccc(-c3cc(C(F)(F)F)nn3-c3ccccc3)cc2)cc1OC | inconclusive: 0.648% [signal inhibitor] | –
Cc1cc(C(=O)CSc2nnc(-c3cccc(F)c3)n2N)c(C)n1Cc1ccc2c(c1)OCO2 | inactive | –
COc1cc(C2CC(=O)Nc3cc4c(cc32)OCCO4)cc(OC)c1O (stereo not given) | inactive | –
COc1ccc(-c2nnn(CC(=O)OC3CCCCC3)n2)cc1OC | inconclusive: 5.18% [signal inhibitor] | –
Cc1oc(-c2cccc(Cl)c2)nc1CSCC(=O)O | – | inconclusive: 25.1 µM [signal inhibitor, single point]

SMILES | IkBa stabilization activation | Potency
CCN(C(=O)c1cc2c(Cl)nc3ccc(C)cc3c2s1)c1cc(OC)ccc1OC | inconclusive: 1.55% [signal inhibitor] | –
Cc1ccc2cc(CN(Cc3cccs3)Cc3nnnn3CC3CCCO3)c(=O)[nH]c2c1 (stereo not given) | – | inconclusive: 15.8 µM [signal inhibitor, partial curve]
CC1(c2ccccc2)CC(C)(C)N(C(=O)c2ccccc2Cl)c2ccccc21 (stereo not given) | inconclusive: 14.4% [signal inhibitor] | –
COc1ccccc1C(=O)Nc1c(C(=O)Nc2ccc(C)cc2)oc2ccccc12 | inconclusive: 1.8% [signal inhibitor] | –
CCOC(=O)c1cccc(NC(=O)CCc2nc(-c3ccc(C)cc3)no2)c1 | inconclusive: 1.88% [signal inhibitor] | –
O=C(c1cnn2c(C(F)(F)F)cc(-c3ccco3)nc12)N1CCc2ccccc2C1 | inactive | –
Cc1nc2ccccc2c2oc(C(=O)N3CCc4ccccc43)cc12 | inactive | –
Cc1cccc(-c2nnc(SCCC(=O)O)o2)c1 | inconclusive: -5.16% [signal inhibitor] | –
Cc1nc2ccc(Cl)cc2nc(C)/c1=N\O | inactive | –
Cc1ccc2nc(N3CCC(C(=O)O)CC3)nc(-c3ccccc3)c2c1 | inconclusive: 7.62% [signal inhibitor] | –
c1ccc(N2CCN(c3nc4cc5c(cc4s3)OCO5)CC2)cc1 | inactive | –
COc1ccccc1CNC(=O)C(C)n1c(=O)cc(C(F)(F)F)c2c(C)nn(C)c21 (stereo not given) | inconclusive: -0.668% [signal inhibitor] | –
CCOc1cccc(NC(=O)C2CCCN(S(=O)(=O)c3ccc(OC)cc3)C2)c1 (stereo not given) | inconclusive: 1.81% [signal inhibitor] | –
COc1ccccc1CNc1cc(-c2c(C)noc2C)ncn1 | inactive: 3.68% [at 11.4 µM, scaled: untreated 0%, proteasome inhibitor 100%] | –
Cc1ccc(C)c(CSc2nc3ccncc3n2Cc2nc(-c3ccccc3Cl)oc2C)c1 | inconclusive: 1.96% [signal inhibitor] | –
Cc1ccc(S(=O)Cc2nc(-c3ccc(C(=O)NC(C)c4ccccc4)cc3)oc2C)cc1 (stereo not given) | inconclusive: 1.79% [signal inhibitor] | –
COc1cccc(CNc2nc3ccccc3n2CCN2CCCCC2)c1OC | inactive | –
COC(=O)c1ccc(C(=O)OC)c(NC(=O)c2c(-c3ccccc3)c(-c3ccccc3)nn(C)c2=O)c1 | inconclusive: 2.39% [signal inhibitor] | –
Cc1ccc2c(c1)nc(SCC(O)c1ccc(Br)cc1)n2C (stereo not given) | inconclusive: 2.64% [signal inhibitor] | –
Cn1c(=O)c2sccc2n2c(CCC(=O)NCc3ccccc3)nnc12 | inactive | –
COC(=O)c1cc(CSc2nnc(-c3ccccc3)c(-c3ccccc3)n2)oc1C | inactive | –
COc1ccc(N2CCN(Cc3nc4c(c(=O)[nH]c(=O)n4C)n3Cc3ccccc3)CC2)cc1 | inactive | –
